US20100003267A1

Target: recombinant human VEGF165 (human) (UniProt P15692)
Assay: competition ELISA: inhibits rhVEGF165 binding to coated VEGFR2/Fc

Sequence of UniProt P15692 (P15692 other isoform, or with tags, fused parts or gaps limits assumed): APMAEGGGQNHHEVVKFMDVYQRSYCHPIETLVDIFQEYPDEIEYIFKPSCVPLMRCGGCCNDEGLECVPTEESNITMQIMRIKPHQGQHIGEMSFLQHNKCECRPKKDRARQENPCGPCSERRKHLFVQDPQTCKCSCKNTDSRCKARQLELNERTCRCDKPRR

IC50 [nM] | Binder
4 | Compound 6001 (protein, part only; not given: Ang2-binding peptide, part only, tethered at position 1; linker on a combining-site lysine (Lys 99)) light: ELQMTQSPSSLSASVGDRVTITCRSSQSLLHTYGSPYLNWYLQKPGQSPKLLIYKVSNRFSGVPSRFSGSGSGTDFTLTISSLQPEDFAVYFCSQGTHLPYTFGGGTKVEIKRTVAAPSVFIFPPSDEQLKSGTASVVCLLNNFYPREAKVQWKVDNALQSGNSQESVTEQDSKDSTYSLSSTLTLSKADYEKHKVYACEVTHQGLSSPVTKSFNRGEC heavy: EVQLVESGGGLVQPGGSLRLSCAASGFTFSNYWMSWVRQSPEKGLEWVSEIRLRSDNYATHYAESVKGRFTISRDNSKNTLYLQMNSLRAEDTGIYYCKTYFYSFSYWGQGTLVTVSSASTKGPSVFPLAPSSKSTSGGTAALGCLVKDYFPEPVTVSWNSGALTSGVHTFPAVLQSSGLYSLSSVVTVPSSSLGTQTYICNVNHKPSNTKVDKRV[human IgG1 Fc left out here] peptide: VEPNCDIHVMWEWECFERL
344 | Compound 6010 (protein, part only; not given: Ang2-binding peptide, part only, K10 = linking residue; linker on a combining-site lysine (Lys 99)) light: ELQMTQSPSSLSASVGDRVTITCRSSQSLLHTYGSPYLNWYLQKPGQSPKLLIYKVSNRFSGVPSRFSGSGSGTDFTLTISSLQPEDFAVYFCSQGTHLPYTFGGGTKVEIKRTVAAPSVFIFPPSDEQLKSGTASVVCLLNNFYPREAKVQWKVDNALQSGNSQESVTEQDSKDSTYSLSSTLTLSKADYEKHKVYACEVTHQGLSSPVTKSFNRGEC heavy: EVQLVESGGGLVQPGGSLRLSCAASGFTFSNYWMSWVRQSPEKGLEWVSEIRLRSDNYATHYAESVKGRFTISRDNSKNTLYLQMNSLRAEDTGIYYCKTYFYSFSYWGQGTLVTVSSASTKGPSVFPLAPSSKSTSGGTAALGCLVKDYFPEPVTVSWNSGALTSGVHTFPAVLQSSGLYSLSSVVTVPSSSLGTQTYICNVNHKPSNTKVDKRV[human IgG1 Fc left out here] peptide: VEPNCDIHVKWEWECFERL
